Assay results from the supplement of paper PMC12632987.
The full ranking holds about 2,300 sequences; the median of “median log2 fold change of GCK-ALFA target abundance (FLAG IP / Myc IP barcode read proportion)” is about 0.095, and the lowest 2% start at about -0.47. This is one part of the list.

B1: LC3A_59_2031 (protein)
chain: DAEIAAYVAALRAAKDDEEAMARIILDGFREFKDDPEKLAALKAALQATLVELGLLSPELAAELLDEAEEIVKTLEDEEEALKEVLRALRVALAEEEIEE
B2: LC3A_28_897 (protein)
chain: MSALETAEKALEEVKKAVEEGNQEPLVLEVKAPSTEEDTEKLIELLEKIAEEASKLKGVTIIIDIDESVSEENRDRLIDKAEELEEKYPNVTVIIALPES
B3: LC3A_free_15_2129 (protein)
chain: AEVEKLKKEIAEKFREIADLLLEAGELLSAEDTKKLIDLLDEAYDAFFESPELALEKVKELAKYLEELKKKKPEAKEALEKLLEEVKKLAEALKKLIEAE
B4: LC3A_132_323 (protein)
chain: SEEKAKKLKEEILKLIEEAEKNIDNLEKVEELVKKIRELAKEAKKELSPEEVAEIFDEAADKADEASLKALEAGKEDVALLLDGLSVELAAESIRAEEKI
B5: LC3A_23_608 (protein)
chain: KYLITADIGLVASPEEAAAAEARARATLAAFLAKHADKIVESRLEVEREALPDGTTLLLIRLEIVVDVSEEEAKAIAEELETALSEALPDAVISVSVEKL
B6: LC3A_3_1808 (protein)
chain: MEERLEEVIKLLKEAGHSEETIKAFLEAAEALKEKGYEEALETLLELARELVDLPSELLLEMFEDVLELVETSDDSEEEITERIREIASTYRHEAEIEEL
B7: LC3A_28_1058 (protein)
chain: MSIEEQLEKALEEAKEAVKKGEEALVELKINKDSTEEDVEKVLETMKEIAELTKDLPSVSIVVDVDHENKEEVTKKVSELGDELEKKYPNVTVIIALSEE
B8: LC3A_78_2087 (protein)
chain: KKKAIIAHTPEAKEEAEREAEKLKETYEVTLVDISELEKELEKAKDYEEVLVIIHAKDLDTVLKNIEKVKKIFKDYKQSEIIEIDEETGIYTGIVYLEKK
B9: LC3A_3_1423 (protein)
chain: SEELLKEAEEVLKEAGLSEEAIEAVLRLIKKAIEAGALEEVEELIEVLKEAKDVSSEEVLEAAEEALRRIEEEGVPIEEALKYFISELRVLILEKEIEEL
B10: LC3A_127_170 (protein)
chain: KLRELLEKLREVLEEALELLDEPDYDLEELEKLLEEAEKLAKEILELDPRAEPLLEDVKQAKELLKQLKKASPEEQEELREQLSMVLDGALIEVDLLLLR
B11: LC3A_3_1430 (protein)
chain: AEEILEEAREVLEEAGFDEETREAVLELLELALEAGEFEEAEELIEELKEAENVDSERVLEAAEEALRKIKEEGVPIKEALEEFIEELRVLRLEEEIEEL
B12: LC3A_28_1318 (protein)
chain: GSIEAELARARAEADAAAAAGEDILLEVKVTGSTTLEEALALMEELERIAERYAPTHKVSIVIDVDGGVSQEVIDAIADKGEEIEERYPNVTVIIALDEN
B13: LC3A_28_1138 (protein)
chain: SEIVEKAKKQIEEDAEADKNEKDVLLNVTLTGSITVEEAKEVMEIVEEKVEELKDKEKIYVVVTAEEPISQEVLDTITEKAEEIEKKFPNVSVIIALPED
B14: LC3A_free_39_2265 (protein)
chain: SAAAKAAALAKLKELAAKASPKVKAAINALADRIKDNLEALEKVTKLLEEALKKGPKVVDIFGQIAQDAVERIDAGTPVEEAIAELEKLSTAAIEIEEID
B15: LC3A_128_227 (protein)
chain: MEKLEEALKNLKRALEDLEKIAKTEEAKKLLKEAKKLLKEIEKLLKEGAPLEEIKKKLKEALKVAKELIKLLKEKGVEDTTLLNAAEIDLANAEEELDEI
B16: LC3A_3_1528 (protein)
chain: FEEIREEVIRLLKEAGADEETIEKAEEALDILEERGYEKAAKVFLEEVKRLAGISPETLAEFVEEVLELLKTKDLDEETLSKEIKEIARTAESAAEIEEL
B17: LC3A_free_8_2441 (protein)
chain: SNQELVDAALKLLDELEEEIEKKAKELGLDETDIGLLLLEVGSAISEVISLSDASPEEILKATKEDLEEIIKLAEEINKELAKIVKEKAEKILKELEKLL
B18: LC3A_28_802 (protein)
chain: SATRESADAARAEAVRKIAAGEEVVVTIEVAEDATQEDIDYVAETIREMARLAKEAGIPKLYVVVDSPDNQEIIDAISKTEDEMRKEGLPVDVIIAIEEP
B19: LC3A_28_649 (protein)
chain: MSIEEQLEEALERAREARERGEPAVITLTVDGSATQEDIEKIIETMEEIAEILADIPGSAIIIDVTGGVPQEFIDKLAEKGEEIEKKYPNVTVILALDEE

Target: MAP1LC3A, Q9H492
Assay: median log2 fold change of GCK-ALFA target abundance (FLAG IP / Myc IP barcode read proportion) (log2 ratio); each designed protein is fused to an ALFA-tag nanobody in HEK293 cells to bring the named protein to FLAG-tagged glucokinase (GCK); Myc marks an untargeted standard; higher = target protein stabilised (more abundant)
Conditions: target protein: 3xFLAG-MCP-GCK-ALFA reporter; HEK293 landing pad (RPLP)
Method in brief: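 The readout is target abundance, the per-binder median log2 ratio of FLAG to Myc barcode read proportions. It came from HEK293 landing-pad cells carrying a recombined ALFA-nanobody-fused binder library, induced with 2 μg mL^−1 doxycycline and transfected with a plasmid for a FLAG-tagged target and a Myc-tagged standard. After 48 h, lysates were immunoprecipitated with anti-FLAG and anti-Myc, and circular RNA barcodes were reverse transcribed, amplified and sequenced. Each barcode needed a proportion of at least 10^−7 in both replicates and each binder at least 3 barcodes per replicate, a pseudocount of 10^−6 was added, and the replicates were pooled.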

Binder | median log2 fold change
B1 | 0.324
B2 | -0.276
B3 | 0.141
B4 | 0.243
B5 | -0.438
B6 | 0.0777
B7 | -0.699
B8 | -0.366
B9 | 0.28
B10 | 0.086
B11 | 0.0453
B12 | 0.0847
B13 | -0.247
B14 | 0.279
B15 | 0.392
B16 | 0.204
B17 | 0.0457
B18 | -0.127
B19 | 0.212
